Test results from the supplement of paper PMC12217912.
The list shows a part of the results. The full chains were built here from the parent and the listed change. Values near 0.05 are background.

B1: TEV protease; numbered along this chain (parent)
chain: MGESLFKGPRDYNPISSSICHLTNESDGHTTSLYGIGFGPFIITNKHLFRRNNGTLVVQSLHGVFKVKDTTTLQQHLVDGRDMIIIRMPKDFPPFPQKLKFREPQREERICLVTTNFQTKSMSSMVSDTSCTFPSGDGIFWKHWIQTKDGQCGSPLVSTRDGFIVGIHSASNFTNTNNYFTSVPKNFMELLTNQEAQQWVSGWRLNADSVLWGGHKVFMVKPEEPFQPVKEATQL

Variants of: B1
Assay: raw area under fraction-flipped curve 0-4 h after induction (AUC4h, not background-subtracted), DNA-recorder readout of cleavage of the substrate (dimensionless); higher = more cleavage of the substrate by the protease variant
Conditions: temperature: 34 °C; time window: 0-4 h after rhamnose induction
Method: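 In vivo DNA recorder in E. coli TOP10(DE3) ΔrhaA at 34 °C. Each TEVp single-site mutant (parent TEVp 0) is paired with a single-site variant of the 7-mer TEVs (canonical ENLYFQ|S). The substrate sits between flexible linkers in a Bxb1-sfGFP-TEVs-SsrA fusion, so cleavage stabilises Bxb1 and speeds flipping of a recombination array, read by NGS. The value is the raw area under the fraction-flipped curve over 0-4 h after rhamnose induction (AUC4h), with ≥20 reads per time point. It is not background-subtracted; inactive controls average about 0.047.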
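Further: Bxb1 expression induced with 0.2% (w/v) L-rhamnose at OD600 near 0.5, cultures sampled hourly, flipped fraction per protease–substrate barcode pair counted by paired-end Illumina sequencing.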

Variant	area with substrate ENLYFAS	area with substrate ENLYFCS	area with substrate ENLYFDS	area with substrate ENLYFES	area with substrate ENLYFFS	area with substrate ENLYFHS	area with substrate ENLYFIS	area with substrate ENLYFKS	area with substrate ENLYFLS	area with substrate ENLYFMS	area with substrate ENLYFNS	area with substrate ENLYFPS	area with substrate ENLYFRS	area with substrate ENLYFSS	area with substrate ENLYFTS	area with substrate ENLYFWS	area with substrate ENLYFGS	area with substrate ENLYFVS	area with substrate ENLYFYS
I42E	0.041	0.0538	0.0391	0.0453	0.0387	0.0546	0.0372	0.0605	0.0538	0.0396	0.0427	0.0476	0.0329	0.0387	0.0481	0.0505	–	–	–
I42M	0.0705	0.052	–	0.0569	0.0759	0.0593	0.0471	0.064	0.0474	0.0618	0.064	0.0536	–	0.0433	0.0656	0.0471	0.0589	0.0333	–
I42P	0.0579	0.0277	0.0432	0.0564	0.048	0.0502	0.0261	0.0467	0.041	0.0215	0.0409	0.0435	0.0489	0.0425	0.0457	–	–	–	0.0561
I43M	0.0739	0.0583	–	0.0573	0.075	–	0.0572	–	0.0601	0.0594	0.0817	0.0588	–	0.059	0.0703	0.0458	0.0581	–	–
K46D	0.0637	0.0537	0.0641	0.0707	0.0613	–	0.0479	0.0564	–	–	0.0677	0.0444	0.0589	0.0524	0.0592	0.0503	0.0512	–	–
F49E	0.0514	0.0645	0.0562	0.0547	0.0684	0.0414	0.0533	0.0546	–	0.0368	0.0552	0.0574	0.0626	0.0586	0.051	0.0614	–	0.0541	0.0564
R50F	0.043	0.0633	–	–	0.069	0.057	0.0602	0.0501	0.0597	0.0905	0.0759	0.0553	–	0.0648	–	0.0629	0.0372	–	0.0537
R50Q	0.0459	–	0.0626	0.0725	0.065	–	0.0582	–	–	0.0915	0.0655	0.0571	–	0.0715	0.0636	0.0577	0.0689	0.0572	–
R50V	0.0516	0.0681	–	–	0.0718	–	0.0584	–	–	0.0681	0.0657	0.0747	0.0456	0.0393	–	0.0647	–	–	–
N53E	0.0351	0.0558	–	–	–	–	0.0549	–	–	–	0.0663	–	0.0658	0.0619	0.0562	–	0.118	–	0.0477
G54D	0.0549	0.0612	0.0246	0.0539	0.0668	–	0.0547	–	–	0.0609	–	–	0.0693	0.0452	0.0604	0.0463	0.0546	0.0608	0.0599
G54F	0.062	–	0.0499	0.0577	0.075	–	0.0587	–	0.0735	0.0575	0.0779	0.0655	–	0.0438	–	0.0606	–	0.0558	0.0592
T55H	0.0627	0.0444	–	0.0598	0.0622	0.0658	0.0666	0.0667	–	0.061	0.0414	0.0634	0.0682	–	0.0793	0.0762	–	–	0.0516
T55K	0.0588	0.0591	0.0576	0.069	0.0784	0.0486	0.0622	–	–	0.063	0.076	0.0638	0.0502	–	0.0716	0.0527	0.0677	0.0526	0.0627
V57A	0.0544	0.057	–	0.069	0.0684	0.0501	0.041	0.0504	–	0.0668	–	0.0498	0.051	0.048	0.0553	0.0639	0.0826	0.062	0.0388
V57C	0.067	–	–	0.0758	0.0762	0.0549	–	–	–	0.0613	0.0646	0.0599	0.0533	0.0511	0.0537	0.0482	0.051	–	–
Q59A	0.0556	0.0779	–	0.0587	0.0462	–	–	–	–	–	–	0.0591	–	–	–	–	–	–	0.0837
Q59T	0.0384	0.0607	–	0.0684	0.0776	0.0775	0.059	–	–	–	0.0604	0.0621	0.0503	–	–	–	0.0588	–	0.0588
S60A	0.0567	0.0674	–	0.0689	0.0818	0.0578	0.0562	–	0.0539	0.0628	0.0683	0.0676	0.0673	0.0658	–	0.0645	–	0.0531	–
L61V	0.0539	0.0694	–	0.0745	–	0.0465	0.0501	0.0589	–	0.0785	–	0.0584	–	0.0364	0.0203	0.0503	–	–	–
H62C	0.064	0.0593	0.061	–	0.0642	0.0045	0.0464	0.0533	–	–	–	0.063	–	0.0603	0.055	0.0621	–	–	0.0594
G63C	0.0658	0.059	–	0.0748	0.0735	0.0644	0.0619	0.0605	–	0.0619	0.0659	0.0604	–	0.0693	0.0585	0.0384	–	0.0537	0.0576
G63K	0.0618	–	–	0.054	0.0646	–	0.0553	0.0581	–	0.0572	0.0466	–	–	0.0501	0.0558	0.048	–	–	–
G63V	0.0515	0.0566	0.0627	0.0529	–	0.0762	0.0557	0.0525	0.0596	0.065	0.0645	0.0583	0.0635	0.0624	0.0601	0.0581	0.0588	–	0.0475
V64S	0.0518	0.0724	–	–	0.0835	–	–	–	–	–	0.0677	0.0586	–	–	0.0492	0.0519	–	–	0.0521
K66T	0.059	0.0631	0.0519	0.0601	0.0751	–	0.0563	0.0683	0.0628	0.0679	–	0.0571	0.093	0.0607	0.0558	0.0488	–	–	0.0364
V67H	0.0635	0.0542	–	0.0626	0.0569	0.0478	0.0656	–	0.0569	0.0614	0.0515	0.0495	–	–	0.0567	–	0.047	0.061	–
